Assay results as given in the RNAGym collection of RNA variant scans (doi:10.7554/elife.90254).
The source gives no read counts; variants with many changes may rest on few reads.

B1: LINE1-mini (parent)
chain: GGCAGAGCUCAACACAGCGUGGCAAAGUGGCUGUGGCUAGACUGCC

Variants of: B1
Test: self-cleavage, relative activity (ratio to wild type); higher = more cleavage; in vitro, sequencing; the parent is a self-cleaving ribozyme

| Variant | self-cleavage |
| --- | --- |
| C10U G21C G29A U34G | 0.05 |
| C10U G29C G30U | 0.04 |
| A11C U20G G21A A25C | 0.01 |
| C10U C15G C23U | 0.09 |
| C10U A25U C42A | 0.1 |
| C10U G19A C37G | 0.01 |
| C10U G22U G29U | 0.11 |
| C10U G29U C31A G36C | 0.06 |
| A11C U20C G22A C23A | 0.03 |
| C10U C18U G21A | 0.66 |
| C10U A11G U38G | 0.04 |
| A11G G21C G40U | 0.02 |
| C10U C15A G30U U34C | 0.03 |
| C10U G22U A25G U38G C46A | 0.04 |
| C10U A16C A41C C45U | 0.03 |
| A11C C13G U28G G30A G40U C46G | 0 |
| C10G U28C C37U | 0.01 |
| C10G U38G C45G | 0 |
| A11G C18A G30C | 0.03 |
| A11G C18A U43A | 0.01 |
| A11G G21U G36C G40A | 0.01 |

| Variant | self-cleavage |
| --- | --- |
| C10U C15U C23A A39U C46A | 0.7 |
| A11C C13U C18A U34C | 0.01 |
| C10U A14U G27C C31A | 0.03 |
| C10U A14U G22U A25G G33U C45G | 0.01 |
| A11G G21A A39G | 0.01 |
| C10U G17C G19A C37A | 0.03 |
| A11G C23A G27C C45A C46U | 0.01 |
| C10U A14C G40A | 0.03 |
| A11C U28A C46A | 0.04 |
| A11C C23A U43C G44C | 0.01 |
| A11C C15A C31G G44A | 0.02 |
| A11C C15A U38C | 0 |
| C10U A26C U43C | 0.03 |
| A11G C23U G44U | 0.04 |
| C10U G29U C42G | 0.06 |
| A11C C13A C31U G40U | 0.03 |
| A11C A14G U32A C46A | 0 |
| A11C C13A U32A U34A U38G G40U | 0 |
| A11C G30U G40U G44U | 0.01 |
| A11G A16U G19U A41U | 0.01 |
| A11G G22A A41U | 0 |

| Variant | self-cleavage |
| --- | --- |
| C10U A14G G27C | 0.14 |
| A11C G33U C37A U43A | 0 |
| A11C A25G G33C G40C | 0.01 |
| C10U G35U U38G C45U | 0 |
| C10U A14G G30C | 0.26 |
| A11C U32C G40U | 0.02 |
| A11G C37A C45G | 0 |
| C10U A12G C13G C23A G40A | 0.01 |
| A11G A12U G35U | 0.02 |
| A11C G19C C46A | 0.01 |
| A11G C18U G40C | 0.01 |
| C10U A11C C18U | 0.03 |
| C10U G35A G40U | 0.02 |
| A11G G21A A24G C31G A41G | 0.07 |
| C10U A16U G21C G29U | 0.95 |
| C10U A24G A25C U28C | 0.08 |
| A11G A14G G29C G40U | 0.01 |
| A11C C15A G19U G22A C37G A41C G44A | 0 |
| A11C C13A C18U C23G | 0.02 |
| A11G C18A G33C U34A | 0.01 |
| C10U U20G A41C | 0.04 |

| Variant | self-cleavage |
| --- | --- |
| A11C U20C C23A C46U | 0.05 |
| C10U C13G G17C G22U G35A | 0.03 |
| A11G A12C G19U U32A C37A | 0.01 |
| C10U A26C G40U | 0.05 |
| A11C C13U C18A G21C A25U C42A | 0.01 |
| A11G G17C G29A | 0.01 |
| A11G A25G C37U | 0.02 |
| C10U G17C G19A A39U | 0.86 |
| A11C A14G C23A G36U A41U G44A | 0.02 |
| C10U C15U A16U C23G A39C | 0.06 |
| C10U C18A U32C U38A A39U | 0.03 |
| C10U G17U G30A C42G | 0.01 |
| C10U A16G A24C A26U G40U G44U | 0.03 |
| A11C C18A A25U | 0.04 |
| A11C C18U U20C A25C G29A U38G | 0 |
| A11C G19U G27A | 0.04 |
| A11C C13U G21A A25U | 0.02 |
| C10U G29U C45U | 0.48 |
| C10U C13U G21A | 0.04 |
| A11C C15G G21C G35C U43C | 0.01 |
